# In all, about 310,000 compounds went through this assay and about 14,000 (4.5%) showed an effect of 50% or more. Effects have a minus sign here. Some of the results follow.
# Target: human ether-à-go-go-related gene (hERG) potassium channel (human, UniProt Q12809)
# Assay: primary screen, population patch clamp on CHO cells stably expressing hERG
# 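Further: peak tail current of the secondary pulse compared with the same well before compound.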
# Chain of human ether-à-go-go-related gene (hERG) potassium channel (Q12809 whole entry, looked up): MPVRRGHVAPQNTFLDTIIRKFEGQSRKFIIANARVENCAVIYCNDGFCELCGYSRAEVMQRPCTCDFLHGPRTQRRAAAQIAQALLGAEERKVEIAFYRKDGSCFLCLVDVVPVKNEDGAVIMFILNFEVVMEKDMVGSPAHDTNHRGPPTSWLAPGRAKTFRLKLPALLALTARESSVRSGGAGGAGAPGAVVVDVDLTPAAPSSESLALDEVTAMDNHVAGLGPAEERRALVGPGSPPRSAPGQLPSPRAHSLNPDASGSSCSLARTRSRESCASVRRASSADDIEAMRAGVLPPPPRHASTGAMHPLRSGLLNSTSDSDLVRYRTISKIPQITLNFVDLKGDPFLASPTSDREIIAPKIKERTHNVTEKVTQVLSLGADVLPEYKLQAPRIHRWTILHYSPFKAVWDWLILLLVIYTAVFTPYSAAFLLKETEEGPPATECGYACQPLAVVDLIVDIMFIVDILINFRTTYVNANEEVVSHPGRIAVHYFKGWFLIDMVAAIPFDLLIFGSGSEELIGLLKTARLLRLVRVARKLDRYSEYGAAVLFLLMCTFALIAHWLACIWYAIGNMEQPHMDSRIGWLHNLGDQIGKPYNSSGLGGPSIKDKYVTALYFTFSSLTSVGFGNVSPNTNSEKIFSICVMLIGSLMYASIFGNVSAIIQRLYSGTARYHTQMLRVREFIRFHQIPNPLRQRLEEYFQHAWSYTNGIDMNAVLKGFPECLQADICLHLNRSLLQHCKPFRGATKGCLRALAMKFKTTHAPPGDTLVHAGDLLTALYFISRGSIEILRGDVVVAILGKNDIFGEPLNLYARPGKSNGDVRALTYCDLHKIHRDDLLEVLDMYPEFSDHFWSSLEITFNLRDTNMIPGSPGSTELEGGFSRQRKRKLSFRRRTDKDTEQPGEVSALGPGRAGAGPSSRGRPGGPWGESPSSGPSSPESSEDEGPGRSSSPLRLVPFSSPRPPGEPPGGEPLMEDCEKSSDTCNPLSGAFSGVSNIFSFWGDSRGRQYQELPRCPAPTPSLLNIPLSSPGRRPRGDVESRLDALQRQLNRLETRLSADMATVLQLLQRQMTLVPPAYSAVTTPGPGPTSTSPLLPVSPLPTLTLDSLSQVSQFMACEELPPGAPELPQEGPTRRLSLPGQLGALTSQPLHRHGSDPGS
row,Compound,"hERG current change (%, negative = inhibition) at 10uM [%]"
1,COc1ccc(/C=C2/SC(=S)N(CCCC(=O)Nc3ccc(O)cc3)C2=O)cc1,-4.48
2,Cn1cnnc1SC(C(=O)Nc1cccc(C(F)(F)F)c1)c1ccccc1 (stereo not drawn),-34.1
3,CCOC(=O)c1ccc(NC(=O)C2C3CCCCC32)cc1 (stereo not drawn),5.24
4,COc1cccc(N2CC(C(=O)NNC(=O)c3ccc(Cl)cc3)CC2=O)c1 (stereo not drawn),9.08
5,N#C/C(C(=O)NCc1ccccc1)=C1\SC(CCO)C(=O)N1c1ccccc1 (stereo not drawn),1.11
6,COCc1nnc(SCC(=O)NC(C)c2ccccc2)n1-c1ccccc1 (stereo not drawn),11
7,CCOC(=O)c1c(NC(=O)Cc2ccccc2)sc2c1CC(C)(C)NC2(C)C,-52
8,CCCN1CCN(S(=O)(=O)c2ccc(-c3cc(C)no3)s2)CC1,-9.43
9,Cc1nc(NC(=O)c2cccnc2Cl)sc1C,4.14
10,CCOC(=O)CNC(=O)C1c2ccccc2Oc2ccccc21,6.1
11,CN(C)CCCN(C(=O)c1ccc(S(=O)(=O)N(C)C)cc1)c1nc2ccc(F)cc2s1.Cl,-32.9
12,C/C(=C\C(=O)C(F)(F)F)Nc1cc(C)cc(C)c1,9.25
13,COc1ccccc1OCC(=O)Nc1ccc(NC(=O)COc2ccccc2OC)cc1,20.3
14,Cc1c(C(=O)N(CCO)Cc2ccccc2)oc2c(F)cccc12,-7.19
15,Cc1nc2cc(-c3ccccc3)nn2c(C)c1CCC(=O)NC(C)c1ccc2c(c1)OCCO2 (stereo not drawn),-50.8
16,CCOC(=O)C1(Cc2cccc(OC)c2)CCN(Cc2cnc(C)s2)CC1,-12.2
17,COc1ccc(-n2c(=S)[nH]c3cc(C(=O)NCc4ccco4)ccc3c2=O)c(OC)c1,11
18,COC(=O)C1CN(C(=O)C(C)Oc2cc(C)ccc2C(C)C)c2ccccc2O1 (stereo not drawn),5.45
19,CCOC(=O)c1c(C)nc2cc(C)ccn12,-17.1
20,O=C1CC(c2ccc(F)cc2)CC2=C1C(c1ccc([N+](=O)[O-])o1)Nc1ccccc1N2 (stereo not drawn),-47.3
21,COc1c(Br)cc([N+](=O)[O-])c(OC)c1C(=O)NC(=O)Nc1cc(Cl)cc(Cl)c1,10.8

row,Compound,"hERG current change (%, negative = inhibition) at 10uM [%]"
1,Cc1cc(C(=O)N/N=C/c2c(C)nn(-c3ccccc3)c2C)n[nH]1,5.15
2,O=C(NN1C(=O)C2C3C=CC(C4CC34)C2C1=O)c1ccc(Br)cc1 (stereo not drawn),22.8
3,O=C(Nc1ccc(Br)cc1)C1C2C=CC3(O2)C1C(=O)N(CCN1CCCCC1)C3C(=O)NC1CCCCC1 (stereo not drawn),-59.8
4,CCN(CC)S(=O)(=O)c1ccc(NC(=O)c2cccnc2Cl)c(NC(=O)c2cccnc2Cl)c1,-0.226
5,CC1CCCC(C)N1C(=O)CSCc1ccc(Cl)cc1 (stereo not drawn),-16.4
6,NC(=O)c1ccc(SCC(=O)OCC(=O)N2CCN(C(=O)c3ccco3)CC2)c([N+](=O)[O-])c1,23.3
7,COc1ccc(-n2c(SCC(=O)O)nnc2-c2ccc(NC(=O)c3ccccc3)cc2)cc1,4.94
8,COc1ccccc1/C=C/C=N/N1CCN(Cc2cccc3ccccc23)CC1,1.45
9,O=C(Nc1nc2ccccc2[nH]1)c1ccc(Br)o1,-14.3
10,O=C(c1cccc(OC2CCN(Cc3cccc(OCCO)c3)CC2)c1)N1CCCC1,-2.71
11,CCCCN(C(=O)NC(=O)Nc1cccc(C)c1C)S(C)(=O)=O,1.54
12,COc1ccc(C2C(C(=O)Nc3cccc(OC)c3)c3ccccc3C(=O)N2C)cc1 (stereo not drawn),7.68
13,O=C(Nc1ccsc1C(=O)O)c1cccc(C(F)(F)F)c1,30.9
14,O=C(COc1ccc2ccccc2c1)NNC(=O)C(=O)Nc1ccccc1,12.5
15,COc1ccc(S(=O)(=O)N2CCN(c3ccccn3)CC2)cc1[N+](=O)[O-],-23
16,CN(C)S(=O)(=O)c1cccc(-c2nn(-c3ccccc3)cc2/C=C(/C#N)C(=O)NCc2ccco2)c1,-26.9
17,Cc1ccc(S(=O)(=O)N2CCN(C(=O)c3ccc(-n4cncn4)c([N+](=O)[O-])c3)CC2)cc1C,-72.7
18,CNC(=S)N(CCc1c(C)[nH]c2ccc(C)cc12)Cc1cccs1,23.9
19,COc1ccccc1NS(=O)(=O)c1cccc(C(=O)OCC(=O)NC2CC2)c1,14.1
20,COc1ccc(CN2CCC(n3nccc3NC(=O)C3CCCC3)CC2)c(OC)c1,-73.2
21,CSc1ccc(CNC(C)(C)CO)cc1.Cl,-25.6

row,Compound,"hERG current change (%, negative = inhibition) at 10uM [%]"
1,COc1ccccc1NC(=O)C1CCN(S(=O)(=O)c2ccc3c(c2)CC(C)N3C(C)=O)CC1 (stereo not drawn),8.71
2,COc1cc(C2C(C(=O)Nc3ccc(F)cc3)=C(C)Nc3nc(CCCO)nn32)cc(OC)c1OC (stereo not drawn),4.43
3,COc1cccc(CN(CC(=O)NCc2ccccc2)C(=O)c2csnn2)c1,-1.54
4,O=C(N/N=C\c1ccc(Cl)s1)C1COc2ccccc2O1 (stereo not drawn),0.727
5,O=C(CSc1nnc(CCCN2C(=O)c3cccc4cccc(c34)C2=O)n1-c1ccccc1)NCCCO,1.67
6,COc1ccc(CNC(=O)c2nnn(-c3cccc(C(F)(F)F)c3)c2N)cc1,9.01
7,COc1ccc(-n2c(NNC(C)=O)nc3sc4c(c3c2=O)CCCC4)cc1,8.35
8,OC(COc1ccc(OCC(O)CN2CCCCC2)cc1)CN1CCCCC1 (stereo not drawn),15.9
9,Cc1c(C(=O)OCC(=O)Nc2ccc3c(c2)OCO3)cccc1[N+](=O)[O-],-2.15
10,CCC(=O)Nc1ccc(C(=O)Nc2ccc(OC)cc2[N+](=O)[O-])cc1,13.7
11,CC1Cc2ccccc2N1C(=O)CSc1nc2c(c(=O)n(C)c(=O)n2C)n1Cc1ccccc1 (stereo not drawn),-33.7
12,CCOCC(=O)Nc1cc(C)on1,36.6
13,NS(=O)(=O)c1ccc(NC(=S)N2CCCC2)cc1,17.2
14,O=C(Cc1ccccc1)N1N=C(c2ccncc2)CC1(O)C(F)(F)F (stereo not drawn),12
15,O=C(CCC1CCCN(Cc2ccc3c(c2)OCCO3)C1)NCc1ccc(F)c(F)c1 (stereo not drawn),-61.5
16,CN(C)C(=O)c1ccc(-c2cc(C(F)(F)F)nn2C)s1,6.06
17,Cc1cc(-c2nc3cccnc3s2)ccc1NS(=O)(=O)c1ccc2c(c1)OCCO2,2.99
18,Cn1c(C(=O)O)c(CC(=O)NCC2COc3ccccc3O2)c2ccccc21 (stereo not drawn),4.56
19,Cc1cc(C(F)(F)F)n2nc(C(=O)O)c(Cl)c2n1,8.44
20,COc1ccc(-c2cc(C(=O)NCC(c3ccccc3)N(C)C)c3ccccc3n2)cc1OC (stereo not drawn),-16.4
21,Nc1ccccc1C(=O)/C=C/c1ccc2c(c1)OCO2,14.4

row,Compound,"hERG current change (%, negative = inhibition) at 10uM [%]"
1,CCOC(=O)C1=C(C)N(CCCC(=O)O)C(=O)NC1c1ccc(Cl)cc1 (stereo not drawn),26.6
2,NC1=NC(=O)CC(C(=O)NCCc2ccccc2)S1 (stereo not drawn),19.3
3,O=C(Nc1nc(-c2ccc(-c3ccccc3)cc2)cs1)C1CCCO1 (stereo not drawn),5.08
4,CC(=O)c1c(C)nc(-c2ccccc2)n1O,0.137
5,CCOC(=O)C1=NN(c2ccc(OC)cc2)C2C(=O)N(c3ccccc3OC)C(=O)C12 (stereo not drawn),7.25
6,O=C(Cn1nnc(-c2ccc(CN3CCOCC3)cc2)n1)N(c1ccccc1)c1ccccc1,10.6
7,CCN(CC)S(=O)(=O)c1ccc(Cl)c(NC(=O)COc2ccc3c(C)cc(=O)oc3c2)c1,7.69
8,COc1ccc(N2C(=O)NC(NS(=O)(=O)c3ccc(Cl)cc3)(C(F)(F)F)C2=O)cc1 (stereo not drawn),16.9
9,COc1cc(/C=N/Nc2nncc3ccccc23)cc(OC)c1OC,-12.5
10,CCSc1nc2ccccc2[nH]1,-0.969
11,NC(=O)CNC1CC(=O)N(CCc2ccccc2)C1=O (stereo not drawn),-1.83
12,O=C(c1ccc2nc3ccccc3c(=O)n2c1)N1CCN(Cc2ccc3c(c2)OCO3)CC1,-60.9
13,O=C(NC(=S)Nc1ccccc1F)C1CCCCC1,24.1
14,CCOc1ccc2nc(NC(=S)N(C)C)sc2c1,13
15,O=C(CSc1nc2ccccc2c(=O)n1-c1ccc(F)cc1)Nc1cc(S(=O)(=O)N2CCOCC2)ccc1Cl,6.71
16,O=C1N=C(C=c2ccc(=Cc3[nH]c(=O)[nH]c3O)cc2)C(=O)N1,17.3
17,O=C(CSc1ccccn1)N1CCN(c2ccccc2)CC1,7.55
18,O=C(CSc1ccc2nnc(-c3ccccn3)n2n1)Nc1ccc(F)cc1,-48.2
19,COC(=O)c1ccccc1NC(=O)C1CC(c2ccc(F)cc2)=NO1 (stereo not drawn),-14.6
20,O=C(CCC1CCCN(c2ncccn2)C1)NCc1ccc(F)c(F)c1 (stereo not drawn),-40.8
21,CCCCn1c(SCC(=O)Nc2ccc3c(c2)OCCO3)nnc1C(CC)N(C)C (stereo not drawn),2.48

# From publication PMC4336329 (PLoS ONE, 2015)
